Measurements as given in the supplement of paper PMC6135742.
Structures can show the parent of a compound that is named as a salt. ± gives the standard deviation of the averaged measurements. In all, about 2,600 compounds were measured (“MBP+ mature oligodendrocyte number relative to DMSO vehicle control”: median about -0.34, highest 2% from about 13 on). This is one part of the list.

These compounds were tested on jimpy (Plp1 jimpy) mouse iPSC-derived oligodendrocyte progenitor cells (assay: MBP+ mature oligodendrocyte number relative to DMSO vehicle control (SDs above negative control mean); higher = more surviving jimpy oligodendrocytes (rescue)). Conditions: 10 µM; 3 days.
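Also: 10 µM single dose with 3-day oligodendrocyte differentiation.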

Structure (SMILES) | MBP+ mature oligodendrocyte number
CC(C)C1CNC(C(=O)O)C1CC(=O)O (configuration not stated) [Dihydrokainic acid] | 1.34
COc1cc2c(c(OC)c1OC)-c1ccc(OC)c(=O)cc1[C@@H](NC(C)=O)CC2 [Colchicine] | < -3.34
CC(N)C(O)c1ccc(O)c(O)c1 (single isomer, unassigned; (-)) [(-)-alpha-Methylnorepinephrine] | -0.387
C[C@]12CC[C@@H](O)C[C@@H]1CC[C@@H]1[C@@H]2CC[C@]2(C)[C@@H](C(=O)CO)CC[C@@H]12 [3-alpha,21-Dihydroxy-5-alpha-pregnan-20-one] | -0.911
CCCN(CCC)C1CCc2cccc(O)c2C1 (racemic) [(±)-8-Hydroxy-DPAT hydrobromide] | -0.701
C/C=C(/C)C(=O)O[C@H]1C(C)=C2[C@H]([C@@H]1OC(=O)CCCCCCC)[C@@](C)(OC(C)=O)C[C@H](OC(=O)CCC)[C@@]1(O)[C@H]2OC(=O)[C@@]1(C)O [Thapsigargin] | < -3.85
COc1ccc(CC2NCCc3cc(OC)c(OC)cc32)cc1OC (configuration not stated) [Tetrahydropapaverine HCl] | 4.03
c1ccc2c(c1)OCC(C1=NCCN1)O2 (configuration not stated) [Idazoxan hydrochloride] | -0.402
CC(C)(C)c1cc(C=C(C#N)C#N)cc(C(C)(C)C)c1O [Tyrphostin 9] | < -6.01
Cc1cc(C(C#N)c2ccc(Cl)cc2)c(Cl)cc1NC(=O)c1cc(I)cc(I)c1O (configuration not stated) [Closantel] | 1.84
Cc1cc(C(C#N)c2ccc(Cl)cc2)c(Cl)cc1NC(=O)c1cc(I)cc(I)c1O (configuration not stated) [Closantel Sodium] | -0.185
O=C(O)c1nn(Cc2ccc(Cl)cc2Cl)c2ccccc12 [Lonidamine] | -0.0229 ± 2.1
Cc1o[nH]c(=O)c1CC(N)C(=O)O (racemic) [(±)-AMPA hydrobromide] | 1.55
CCC1(C2=NCCN2)Cc2ccccc2O1 (configuration not stated) [Efaroxan hydrochloride] | -1.22
CC[C@@H](CO)NC(=O)[C@@H]1C=C2c3cccc4[nH]cc(c34)C[C@H]2N(C)C1 [Methylergonovine maleate] | -0.519
CCOC(=O)c1ncn2c1[C@@H]1CCCN1C(=O)c1cc(OC)ccc1-2 | -0.245
C[N+]1(C)[C@@H]2CC(OC(=O)[C@H](CO)c3ccccc3)C[C@H]1[C@@H]1O[C@@H]12 (single isomer, unassigned; (-)) [(-)-Scopolamine methyl nitrate] | 0.539
COc1ccc2c(c1O)-c1cccc3c1[C@@H](C2)N(C)CC3 [R(-)-Apocodeine hydrochloride] | -1.8
O=c1[nH]oc2c1CCNC2 [THIP hydrochloride] | -0.318
NC(Cc1cc(O)c(O)cc1O)C(=O)O (racemic) [6-Hydroxy-DL-DOPA] | 0.0316
CC(C)Oc1cccnc1N(C)C1CCN(Cc2ccccc2)CC1 | 19.1

Structure (SMILES) | MBP+ mature oligodendrocyte number
O=C(CCCN1CCC2(CC1)C(=O)NCN2c1ccccc1)c1ccc(F)cc1 [Spiperone hydrochloride] | -2.71
CCCN(CCC)C1CCc2ccc(O)cc2C1 (racemic) [(±)-7-Hydroxy-DPAT hydrobromide] | -0.701
COC[C@H]1OC(=O)c2coc3c2[C@@]1(C)C1=C(C3=O)C2CCC(=O)[C@@]2(C)C[C@H]1OC(C)=O (some centres not stated) [Wortmannin from Penicillium funiculosum] | -0.64
NCC1(CC(=O)O)CCCCC1 [Gabapentin] | 0.659
O=c1cccc2n1C[C@@H]1CNC[C@H]2C1 [Cytisine] | -1.51
CCOC(=O)c1cncn1[C@H](C)c1ccccc1 [Etomidate] | -0.589
CCN1CCN(C(=O)Cc2ccc(Nc3ncc(F)c(Nc4ccc(C(=O)Nc5ccccc5Cl)cc4)n3)cc2)CC1 [Aurora A Inhibitor I] | -6.52
CC(O)(CS(=O)(=O)c1ccc(F)cc1)C(=O)Nc1ccc(C#N)c(C(F)(F)F)c1 (configuration not stated) [Bicalutamide] | 3.77
CC(O)(CS(=O)(=O)c1ccc(F)cc1)C(=O)Nc1ccc(C#N)c(C(F)(F)F)c1 (configuration not stated) [Bicalutamide (CDX)] | 1.86
CN1CCc2cc3c(cc2C1C1OC(=O)c2c1ccc1c2OCO1)OCO3 (single isomer, unassigned; (+)) [(+)-Bicuculline] | 1.84
Cc1ncsc1CCCl [Chlormethiazole hydrochloride] | -0.119
CCC1(c2ccc(N)cc2)CCC(=O)NC1=O (racemic) [(±)-p-Aminoglutethimide] | -0.433
CN1[C@@H]2C[C@@H](OC(=O)[C@H](CO)c3ccccc3)C[C@H]1[C@@H]1O[C@@H]12 [(-)-Scopolamine hydrobromide] | 0.146
CN1[C@@H]2C[C@@H](OC(=O)[C@H](CO)c3ccccc3)C[C@H]1[C@@H]1O[C@@H]12 [Scopolamine HBr] | 2.3
CN(C)CCc1ccc(O)cc1 [Hordenine] | 0.507
CC(=O)[C@H]1CC[C@H]2[C@@H]3CC[C@H]4C[C@](C)(O)CC[C@]4(C)[C@H]3CC[C@]12C [Ganaxolone] | 0.189
COC1=C[C@@H]2[C@@H]3Cc4ccc(OC)c(O)c4[C@]2(CCN3C)CC1=O [Sinomenine] | -0.724
C/C(=C\c1csc(C)n1)[C@@H]1C[C@@H]2O[C@@H]2CCC[C@H](C)[C@H](O)[C@@H](C)C(=O)C(C)(C)[C@@H](O)CC(=O)O1 [Epothilone A] | -2.95
CO[C@H]1CC[C@@H](O[C@H]2C[C@H]([C@]3(C)CC[C@]4(C[C@H](O)[C@@H](C)[C@@H]([C@@H](C)/C=C(\C)C(=O)[C@H](C)C[C@H](C)C(=O)O)O4)O3)O[C@]3(O[C@@H]([C@H]4O[C@@](O)(CO)[C@H](C)C[C@@H]4C)C[C@@H]3C)[C@@H]2C)O[C@@H]1C [Nanchangmycin] | < -6.7
[O-][n+]1ccccc1[S-].[O-][n+]1ccccc1[S-].[Zn+2] [Zinc Pyrithione] | < -6.35
N[C@@H]1C[C@H]1c1ccccc1 [Tranylcypromine (2-PCPA) HCl] | -1.79

Structure (SMILES) | MBP+ mature oligodendrocyte number
N[C@@H]1C[C@H]1c1ccccc1 [Tranylcypromine hydrochloride] | -0.961
NCC(CC(=O)O)c1ccc(Cl)cc1 (racemic) [(±)-Baclofen] | 0.0385
Cn1c(CCCC(=O)O)nc2cc(N(CCCl)CCCl)ccc21 [Bendamustine hydrochloride] | 0.973
Cn1c(CCCC(=O)O)nc2cc(N(CCCl)CCCl)ccc21 [Bendamustine HCl] | -1.46
O=C1CC[C@@]2(O)[C@H]3Cc4ccc(O)c5c4[C@@]2(CCN3CC2CC2)[C@H]1O5 [Naltrexone HCl] | 1.51
O=C1CC[C@@]2(O)[C@H]3Cc4ccc(O)c5c4[C@@]2(CCN3CC2CC2)[C@H]1O5 [Naltrexone hydrochloride] | 1.56
CN1CC[C@@]2(C)c3cc(O)ccc3N(C)C12 (single isomer, unassigned; (-)) [(-)-Eseroline fumarate] | -1.28
CC(C)[C@]12O[C@H]1[C@@H]1O[C@]13[C@]1(O[C@H]1C[C@H]1C4=C(CC[C@@]13C)C(=O)OC4)[C@@H]2O [Triptolide (PG490)] | < -6.01
CC(=O)[C@H]1CC[C@H]2[C@@H]3CC[C@H]4C[C@H](O)CC[C@]4(C)[C@H]3CC[C@]12C [5alpha-Pregnan-3alpha-ol-20-one] | 1.97
CC(C)(C)c1cc(C=C(C#N)C#N)cc(Br)c1O | 0.72
Oc1ccc2c3c1O[C@H]1c4[nH]c5ccccc5c4C[C@@]4(O)[C@@H](C2)N(CC2CC2)CC[C@]314 [Naltrindole hydrochloride] | -3.77
N[C@]1(C(=O)O)CC[C@H](C(=O)O)C1 (racemic) [trans-(±)-ACPD] | 0.981
CC(NC(C)(C)C)C(=O)c1cccc(Cl)c1 (configuration not stated) [Bupropion hydrochloride] | 0.588
CC(NC(C)(C)C)C(=O)c1cccc(Cl)c1 (configuration not stated) [Amfebutamone HCl] | 1.68
CN1CCCCC1Cn1cc(C(=O)c2cc([N+](=O)[O-])ccc2I)c2ccccc21 (configuration not stated) | -4.97
COC(=O)N1CCN(C(=O)Cc2ccc(Cl)c(Cl)c2)C(CN2CCCC2)C1 (configuration not stated) | -0.91
CC(C)NC(C)Cc1ccc(I)cc1 (configuration not stated) [Iofetamine hydrochloride] | 7.44
O=c1ccc2cc(O[C@@H]3O[C@H](CO)[C@@H](O)[C@H](O)[C@H]3O)c(O)cc2o1 [Esculin] | 0.955
N=C(NCCC[C@H](N)C(=O)O)N[N+](=O)[O-] [NG-Nitro-L-arginine] | -0.676
c1ccc2c(c1)Nc1ccccc1S2 [Phenothiazine] | 5.9
CCCN(CCC)C1Cc2cc(OC)c(OC)cc2C1 | 3.47

Structure (SMILES) | MBP+ mature oligodendrocyte number
O=C1C=CC[C@@H]2[C@H]3CCCN4CCC[C@@H](CN12)[C@@H]34 [Sophocarpine] | 1.4
CC(=O)O[C@H]1C[C@@H]2CC[C@@H]3[C@H](CC[C@@]4(C)[C@H]3C[C@H]([N+]3(C)CCCCC3)[C@@H]4OC(C)=O)[C@@]2(C)C[C@@H]1[N+]1(C)CCCCC1 [Pancuronium bromide] | -0.206
CC(=O)O[C@H]1C[C@@H]2CC[C@@H]3[C@H](CC[C@@]4(C)[C@H]3C[C@H]([N+]3(C)CCCCC3)[C@@H]4OC(C)=O)[C@@]2(C)C[C@@H]1[N+]1(C)CCCCC1 [Pancuronium dibromide] | 0.171
O=C(NCC1CCOCC1)c1cnc(Nc2ccc(Cl)cc2Cl)nc1C(F)(F)F | 3.28
COC(=O)[C@@H](N)CCCNC(=N)N[N+](=O)[O-] [NG-Nitro-L-arginine methyl ester hydrochloride] | 0.304
C[C@@H]1O[C@H](C[N+](C)(C)C)C[C@H]1O (racemic) [(±)-Muscarine chloride] | -0.245
CP(=O)(O)C1=CCNCC1 | 0.217
Cn1cc(C2=C(c3cn(C4CCN(Cc5ccccn5)CC4)c4ccccc34)C(=O)NC2=O)c2ccccc21 | -5.04
NC(=O)c1cc(N2CC2)c([N+](=O)[O-])cc1[N+](=O)[O-] | -2.2
C=CCN1CC[C@]23c4c5ccc(O)c4O[C@H]2C(=O)CC[C@@]3(O)[C@H]1C5 [Naloxone hydrochloride] | -0.049
C=CCN1CC[C@]23c4c5ccc(O)c4O[C@H]2C(=O)CC[C@@]3(O)[C@H]1C5 [Naloxone HCl] | 1.77
C[C@@H]1CC[C@@]2(OC1)O[C@H]1C[C@H]3[C@@H]4CC=C5C[C@@H](O[C@@H]6O[C@H](CO)[C@@H](O[C@@H]7O[C@@H](C)[C@H](O)[C@@H](O)[C@H]7O)[C@H](O)[C@H]6O[C@@H]6O[C@@H](C)[C@H](O)[C@@H](O)[C@H]6O)CC[C@]5(C)[C@H]4CC[C@]3(C)[C@H]1[C@@H]2C [Dioscin] | < -4.81
CN1CC[C@]2(CCN3CCc4c(oc5ccccc45)[C@@H]3C2)N(C)C1=O | 1.72
Cc1cccc(Cc2c[nH]cn2)c1C [Detomidine HCl] | 10.2
N#CC(C#N)=Cc1ccc(O)c(O)c1 [Tyrphostin 23] | -0.854
COc1ccc2[nH]c3c(c2c1)CCNC3 [6-Methoxy-1,2,3,4-tetrahydro-9H-pyrido[3,4b] indole] | -0.315
CC[C@@H](C(=O)[C@@H](C)[C@@H](O)[C@H](C)[C@@H]1O[C@@H]([C@@H](CC)C(=O)O)CC[C@@H]1C)[C@H]1O[C@]2(C=C[C@@H](O)[C@]3(CC[C@@](C)([C@H]4CC[C@](O)(CC)[C@H](C)O4)O3)O2)[C@H](C)C[C@@H]1C [Salinomycin] | < -4.81
Cc1cccc(C)c1NC(=O)CN1CCCC1=O [Nefiracetam] | 0.839 ± 0.7
NC(=O)CI [Iodoacetamide] | -2.17
